Results published in PubChem BioAssay AID1508642 (National Center for Advancing Translational Sciences (NCATS), 2021).
About 200 (0.47%) of roughly 43,000 compounds were called active. Inconclusive results (about 12%) are left out. Calls come from the whole dose curve; as a rule, active = well fitted cell-killing curve with a large enough effect; inconclusive = small, poorly fitted or top-dose-only effect, or effect the other way; inactive = flat fitted curve, though single readings scatter. This is one part of the list.

assay: Cell viability qHTS assay in S16 Pmp22-F2sN cells; details: S16 Pmp22-F2sN Schwann cells viability, CellTiter-Glo, 24 h; series mostly up to 57.5 µM; activity change, negative = cytotoxicity: at the top concentration; note: nearly all actives have a fitted effect of over 65% in size
In short: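 Viability was measured by CellTiter-Glo luminescence (15 min, room temperature). This followed 24 h at 37 °C of compound exposure (23 nL pin transfer) in S16 Pmp22-F2sN Schwann cells, 500-1,000 per well.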
% is set by controls: 0 for no effect and ±100 for the full control effect.

| Compound | activity change, negative = cytotoxicity |
| --- | --- |
| CCOc1ccccc1NC(=O)Cn1c(=O)n(Cc2ccc(OC)cc2)c(=O)c2oc3ccccc3c21 | inactive: 13.2% |
| COc1ccc(OC)c(CNC(=O)CCCn2c(=O)c3cccn3c3cccnc32)c1 | inactive: 4.87% |
| Cc1cccc(-n2c(C)cc(C(=O)C(=O)Nc3nncs3)c2C)c1 | inactive: -0.995% |
| COc1ccccc1-c1nnc(C2CCN(C(=O)c3ccccc3C)CC2)o1 | inactive: 3.71% |
| COc1ccc(N(CC(=O)Nc2cc(OC)cc(OC)c2)S(=O)(=O)c2c(C)noc2C)cc1 | inactive: -20.4% |
| Cc1cc2c(cc1S(=O)(=O)Nc1ccc(C(C)C)cc1)OCCN2C | inactive: -1.02% |
| CCOc1ccc(C(=O)Nc2ccc3c(c2)CCCN3S(=O)(=O)c2ccc(C)cc2)cc1 | inactive: -2.68% |
| CC1CCCCN1Cc1c(O)ccc2c(=O)c(-c3ccc(Cl)cc3)c(C(F)(F)F)oc12 (stereo unspecified) | inactive: -6.73% |
| CC1=C(C(=O)OCc2ccc(C)cc2)C(c2ccccc2C(F)(F)F)CC(=O)N1 (stereo unspecified) | inactive: 3.22% |
| Cc1ccc(OCCSc2nc3ccccc3n2CC(=O)N2CCOCC2)cc1 | inactive: 14.1% |
| CCOC(=O)c1noc2ncn(CC(=O)Nc3ccc(F)cc3Cl)c(=O)c12 | inactive: -0.705% |
| CCOc1ccc(NC(=O)CSc2nnc3scc(-c4ccccc4)n23)cc1 | inactive: 7.14% |
| COC(=O)c1c(NC(=O)c2ccc(Cl)c(Cl)c2)sc2c1CCCC2 | inactive: 9.49% |
| COc1ccc(CNC(=O)c2cc(-c3ccc(Br)s3)nc3ccccc23)c(OC)c1 | inactive: -3.38% |
| Cc1ccc(-n2ncc(C(=O)Nc3ccc4c(c3)OCCO4)c2C2CCN(C(=O)OC(C)(C)C)CC2)cc1C | inactive: -24.6% |
| CC1=C(C(=O)NCc2cccc(F)c2)C2(CCCCCC2)OC1=O | inactive: -17.6% |
| COc1ccccc1NC(=O)CC1Sc2ccc(C(F)(F)F)cc2NC1=O (stereo unspecified) | inactive: 12.6% |
| CCOc1ccccc1CNC(=O)Cn1c(=O)c2cccn2c2ccc(F)cc21 | inactive: -14.8% |
| COc1ccccc1N1CCN(C(=O)Cn2ncc3c2-c2cc(C)ccc2OC3)CC1 | inactive: -21.5% |
| COc1ccc(Nc2nc3ccc(C)cc3nc2-n2nc(C)cc2C)cc1Cl | inactive: 10.7% |
| COCCN1CCc2nc(SCC(=O)Nc3ccc(C)c(Cl)c3)[nH]c(=O)c2C1 | inactive: 3.88% |
| CCN(c1ccccc1C)S(=O)(=O)c1nnc(NC(=O)c2ccc(OC)c(OC)c2)s1 | inactive: -3.12% |
| Cc1ccc(C2=Nc3ccccc3N=C(c3ccc(F)cc3)C2)c(O)c1 | inactive: 4.26% |
| O=C(NCCSc1c[nH]c2ccccc12)c1ccc(Cl)cc1 | inactive: -27.1% |

| Compound | activity change, negative = cytotoxicity |
| --- | --- |
| Cc1ccc(N2CC(NC(=O)CCCc3ccccc3)CC2=O)cc1 (stereo unspecified) | inactive: 6.79% |
| COc1ccc(Cn2c(SCc3ccc(C(=O)NCc4ccc(C)cc4)cc3)nc3cccnc32)cc1 | inactive: -15.3% |
| O=C(NCCc1ccccc1)c1ccc2c(c1)N(Cc1ccc(Cl)cc1)C(=O)c1ccccc1S2(=O)=O | inactive: 1.17% |
| Cc1ccc(Cl)cc1N1CCN(c2nc3ccc(C(=O)c4ccccc4)cc3n3cnnc23)CC1 | inactive: 1.63% |
| O=C(Cn1nc(Cc2cccnc2)c2ccccc2c1=O)N1CCN(c2ccccc2F)CC1 | inactive: 10% |
| COc1ccc(CNC(=O)c2ccc(CN3C(=O)C(C)=C(c4ccc(C)cc4)S3(=O)=O)cc2)cc1 | inactive: -4.06% |
| CCc1nc(SC)ncc1C(=O)NCc1cccc(Br)c1 | inactive: -0.951% |
| CCC1CCCCN1CCCNC(=O)c1ccc2c(c1)c(C)c(C)n2CC (stereo unspecified) | inactive: -6.28% |
| CCOC(=O)c1c(Nc2ccc(C)c(C)c2)nnc(-c2ccccc2)c1-c1ccccc1 | inactive: -20.9% |
| O=C(NCCc1ccccc1)c1c[nH]c2ccc(S(=O)(=O)Nc3ccc(F)cc3F)cc2c1=O | inactive: 1.52% |
| CCCC(=O)Nc1cc2nn(-c3ccc(OC)cc3)nc2cc1C | inactive: 5.76% |
| CCc1ccc(C(=O)c2cn(CC(=O)NCCc3ccccc3)c3nc(C)ccc3c2=O)cc1 | inactive: 18.6% |
| COc1cccc(NC(=O)C2CCCN(c3ncnc4onc(-c5ccc(F)cc5)c34)C2)c1 (stereo unspecified) | inactive: -12.8% |
| COc1ccc(CNC(=O)CN2N=C(c3ccc(Cl)cc3)CCC2=O)cc1 | inactive: -0.444% |
| COc1ccc(-c2nn(C)c3sc(C(=O)NCCN(C)C)cc23)cc1OC | inactive: -28.7% |
| Cc1cc(C)c(NC(=O)Cn2c(=O)n(CCC(C)C)c(=O)c3cccnc32)c(C)c1 | inactive: -11.3% |
| CCCCCCc1c(C)c2c(cc(C)c3c(C)coc32)oc1=O | inactive: 0.878% |
| Cc1ccc(C)c(NC(=O)Cn2ncc3c(C)n(Cc4ccc(F)cc4)c(C)c3c2=O)c1 | inactive: 6.25% |
| CCn1nc(C)c2c(-c3ccccc3)cc(=O)n(C(C)C(=O)Nc3ccc(OC)c(OC)c3)c21 (stereo unspecified) | inactive: 24.8% |
| COc1ccc(C2C=C(c3ccccc3)Nc3nc(NC(C)=O)nn32)cc1 (stereo unspecified) | inactive: -21.3% |
| Cc1cccc(NC(=O)Nc2cccs2)c1C | inactive: -6.02% |
| O=C(CCc1cn(Cc2ccc(F)cc2)c2ccccc12)NC1CCCCC1 | inactive: 2.57% |
| COc1ccc(-c2cc(C(F)(F)F)n3nc(C)c(-c4ccccc4)c3n2)cc1OC | inactive: 22.7% |
| N#C/C(=C\c1ccc(O)cc1)C(=O)NCC1CCCO1 (stereo unspecified) | inactive: 17.5% |

| Compound | activity change, negative = cytotoxicity |
| --- | --- |
| CC1=C(c2ccc(C)c(C)c2)S(=O)(=O)N(Cc2ccc(C(=O)NCc3ccccc3F)cc2)C1=O | inactive: -0.749% |
| Cc1cc(C)cc(NC(=O)Cn2nnc(-c3ccccc3F)n2)c1 | inactive: 12.1% |
| Cc1ccc(CNC(=O)CSc2c(C)cnc3c2c(=O)n(C)c(=O)n3C)cc1 | inactive: -0.791% |
| CCOC(=O)N1CCc2c(sc3c2c(=O)n(-c2ccc(CC)cc2)c(=O)n3Cc2cccc(Cl)c2)C1 | inactive: 9.5% |
| CCC1CN(C(=O)N2CCC(C(=O)NCCc3ccc(OC)c(OC)c3)CC2)c2ccccc2O1 (stereo unspecified) | inactive: -0.259% |
| CCn1cc(C(=O)OCC(=O)Nc2cc(Cl)ccc2C)c(=O)c2ccc(C)nc21 | inactive: -0.51% |
| Cc1ccc(NC(=O)C2CCN(S(=O)(=O)c3cccc4nsnc34)CC2)cc1 | inactive: 15.9% |
| CCCCOc1ccc(C2C(=O)N(C3CCCCC3)CC(=O)N2C2CCCCC2)cc1 (stereo unspecified) | inactive: 3.37% |
| Cc1ccc(NC(=O)CN2C(=O)C(c3ccc(F)cc3)=NC23CCCCCC3)c(C)c1 | inactive: 4.11% |
| Cc1ccc(C)c(N2CCN(C(=O)c3cc4cc5ccc(C)cc5nc4o3)CC2)c1 | inactive: 6.57% |
| Cc1coc2c1c(C)cc1oc(=O)c(CC(=O)NCCc3ccc(Cl)cc3)c(C)c12 | inactive: 4.62% |
| O=C(NCCc1ccc(Cl)cc1)C(=O)NCC(c1ccco1)S(=O)(=O)c1ccccc1 (stereo unspecified) | inactive: 6.71% |
| Cc1ccc(NC(=O)C(=O)NCC(c2cccnc2)N2CCN(C)CC2)cc1 (stereo unspecified) | inactive: 7.82% |
| Cc1c(C(=O)NCc2ccccc2)oc2ccc(S(=O)(=O)N3CCC(C)CC3)cc12 | inactive: 1.97% |
| COc1ccc(C)cc1NC(=O)c1ccc2nc(Cc3ccccc3)oc2c1 | inactive: -18.1% |
| CCn1c2c(c(=O)n3ncc(C(=O)Nc4ccc(C(=O)OC)cc4)c13)CN(Cc1ccc(OC)cc1)CC2 | inactive: -32.5% |
| COc1ccc(CCNC(=O)c2c(O)nc3c(C)cccn3c2=O)cc1OC | inactive: -5.07% |
| COc1ccc(N2CCN(C(=O)CSc3nc4ccccc4nc3Cc3ccc(Cl)cc3)CC2)cc1 | inactive: 0.75% |
| Cc1c(C(=O)NCCc2ccc(Cl)cc2)cccc1-n1cnc2cccnc21 | inactive: -4.96% |
| CCOC(=O)Cn1c(=O)n(CC2CCCO2)c2nc(-c3ccccc3Cl)nc(C(N)=O)c21 (stereo unspecified) | inactive: 7.48% |
| Cc1cc(C)cc(NC(=O)c2sc3nc[nH]c(=O)c3c2C)c1 | inactive: -5.95% |
| Cc1ccc(CNC(=O)c2c(-c3ccc(Br)cc3)noc2C)o1 | inactive: -10.5% |
| CCOc1ccccc1NC(=O)C1=C(C)Nc2ncnn2C1c1sccc1C (stereo unspecified) | inactive: 1.55% |
| O=C(CCCn1c(=O)c2cccn2c2cccnc21)Nc1ccccc1C(F)(F)F | inactive: 4.81% |

| Compound | activity change, negative = cytotoxicity |
| --- | --- |
| CCOC(=O)c1ccc(CN(Cc2ccc(OC)cc2)S(=O)(=O)c2cccc(C(F)(F)F)c2)cc1 | inactive: 6.77% |
| COc1ccccc1C(=O)Nc1c(C(=O)c2ccccc2)oc2ccccc12 | inactive: 17.2% |
| CCOc1ccc(N(CC)C(=O)c2noc3c2COc2ccc(C)cc2-3)cc1 | inactive: 24.6% |
| O=c1c(N2CCc3ccccc3C2)csc2ccc(F)cc12 | inactive: 2.15% |
| CC1=C(C(=O)Nc2ccccc2C)C(c2cccs2)n2nc(SCc3cc(C)ccc3C)nc2N1 (stereo unspecified) | inactive: -1.11% |
| Cc1ccc2oc(C(=O)Nc3nc(-c4ccc(F)cc4)ns3)c(C)c2c1 | inactive: -1.77% |
| CCc1ccc(C(=O)c2cn(CC(=O)Nc3ccc4c(c3)OCCO4)c3ccc(CC)cc3c2=O)cc1 | inactive: -4.38% |
| Cc1ccccc1OCC(=O)Nc1ccc(C(=O)OCc2cc(=O)n3c(C)csc3n2)cc1 | inactive: -0.814% |
| CCCN(CCC)C(=O)c1c[nH]c2ccc(S(=O)(=O)N(C)c3ccc(OCC)cc3)cc2c1=O | inactive: -12.3% |
| COc1ccc(CCNC(=O)c2ccc3c(Cl)c4c(nc3c2)CCCC4)cc1OC | inactive: 17.7% |
| COCCCNC(=O)C1CCCN(c2ncnc3onc(C)c23)C1 (stereo unspecified) | inactive: -1.54% |
| Cc1cccc(N2CCN(C(=O)c3cc4c(=O)[nH]c5ccc(C)cc5c4s3)CC2C)c1 (stereo unspecified) | inactive: 9.86% |
| COc1ccc(Cn2c(CNC(=O)Cc3cccc([N+](=O)[O-])c3)nc3cccnc32)cc1 | inactive: 1.07% |
| CC(=O)N1CCN(c2nc3c(F)cc(F)cc3s2)CC1 | inactive: 2.9% |
| COc1cccc(NC(=O)CSC2=Nc3ccccc3C3=NC(CC(=O)NCc4cccs4)C(=O)N23)c1 (stereo unspecified) | inactive: 11.7% |
| COc1ccc(C2c3c(oc4cc(C)cc(C)c4c3=O)C(=O)N2Cc2ccco2)cc1OC (stereo unspecified) | inactive: 10.7% |
| COc1ccc(S(=O)(=O)NC(C)C)cc1-n1cnnn1 | inactive: 1.08% |
| O=C(Nc1ccc(OC(F)(F)F)cc1)C1CCCN(S(=O)(=O)c2ccc(Br)s2)C1 (stereo unspecified) | inactive: -3.83% |
| O=C(Cc1csc2ccccc12)NCc1ccc(F)cc1 | inactive: 4.41% |
| COc1ccc(C(C(=O)Nc2ccc(C(C)C)cc2)N(C)C(=O)Cc2cccs2)cc1 (stereo unspecified) | inactive: -12.6% |
| Cc1ccc(NC(=O)Cn2c(SCc3cccc(F)c3)nc3ccncc32)c(C)c1 | inactive: -7.4% |
| CC(C)(C)c1ccc(C(=O)Nc2nc3nc(-c4ccccc4)cc(=O)n3[nH]2)cc1 | inactive: 4.74% |
| C#CC(C)(CC)NC(=O)Cn1nnc(-c2ccc(OCc3ccccc3Cl)cc2)n1 (stereo unspecified) | inactive: -3.64% |
| COc1ccc(Br)cc1CNC(=O)CN1C(=O)CCCc2ccccc21 | inactive: 6.8% |
